Consider one protein from patent US11747352B2.

Substrate in this series: COC(=O)[C@@H]1CC2=CC(=O)CC[C@]2(C)[C@@]23O[C@@H]2C[C@@]2(C)[C@@H](CC[C@@]24CCC(=O)O4)[C@H]13
Kind of series: cells, lysate or membranes named. To be noted: rhCYP3A4.

B1: rhCYP3A4 (Homo sapiens) (protein)
chain: ALIPDLAMETWLLLAVSLVLLYLYGTHSHGLFKKLGIPGPTPLPFLGNILSYHKGFCMFDMECHKKYGKVWGFYDGQQPVLAITDPDMIKTVLVKECYSVFTNRRPFGPVGFMKSAISIAEDEEWKRLRSLLSPTFTSGKLKEMVPIIAQYGDVLVRNLRREAETGKPVTLKDVFGAYSMDVITSTSFGVNIDSLNNPQDPFVENTKKLLRFDFLDPFFLSITVFPFLIPILEVLNICVFPREVTNFLRKSVKRMKESRLEDTQKHRVDFLQLMIDSQNSKETESHKALSDLELVAQSIIFIFAGYETTSSVLSFIMYELATHPDVQQKLQEEIDAVLPNKAPPTYDTVLQMEYLDMVVNETLRLFPIAMRLERVCKKDVEINGMFIPKGVVVMIPSYALHRDPKYWTEPEKFLPERFSKKNKDNIDPYIYTPFGSGPRNCIGMRFALMNMKLALIRVLQNFSFKPCKETQIPLKLSLGGLLQPEKPVVLKVESRDGTVSGA
On to B1, for which the Km by setting is: (other: 6β-OH metabolite formation) 613 mcM; (other: 21-OH metabolite formation) 362 mcM.
